Some of the results follow.
Assays:
Assay in all cases: glycan array binding signal (z-score within array); higher = stronger binding
Conditions in all cases: glycan notation: IUPAC condensed, linker removed
Fuc(a1-2)Gal = molecular target: Fuc(a1-2)Gal
Procedure, shortened: (§1)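 Glycan array data were curated from 3228 arrays in the Consortium for Functional Glycomics database and kept only where the protein sequence was available. Glycan names were converted to IUPAC-condensed notation, and columns mapping to the same glycan were averaged. The binding signal is a within-array Z-score, averaged across arrays of the same protein sequence at different concentrations or buffers and across linkers. Negative Z-scores can be read as non-binding.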

Fuc(a1-2)Gal(b1-3)GalNAc = molecular target: Fuc(a1-2)Gal(b1-3)GalNAc
Procedure, shortened: as §1

[1] = molecular target: Fuc(a1-2)Gal(b1-3)GalNAc(a1-3)[Fuc(a1-2)]Gal(b1-4)Glc
Procedure, shortened: as §1

[2] = molecular target: Fuc(a1-2)Gal(b1-3)GalNAc(a1-3)[Fuc(a1-2)]Gal(b1-4)GlcNAc
Procedure, shortened: as §1

[3] = molecular target: Fuc(a1-2)Gal(b1-3)GalNAc(b1-3)Gal
Procedure, shortened: as §1

[4] = molecular target: Fuc(a1-2)Gal(b1-3)GalNAc(b1-3)Gal(a1-4)Gal(b1-4)Glc
Procedure, shortened: as §1

[5] = molecular target: Fuc(a1-2)Gal(b1-3)GalNAc(b1-4)[Neu5Ac(a2-3)]Gal(b1-4)Glc
Procedure, shortened: as §1

Fuc(a1-2)Gal(b1-3)GlcNAc = molecular target: Fuc(a1-2)Gal(b1-3)GlcNAc
Procedure, shortened: as §1

[6] = molecular target: Fuc(a1-2)Gal(b1-3)GlcNAc(b1-2)Man(a1-3)[Fuc(a1-2)Gal(b1-3)GlcNAc(b1-2)Man(a1-6)]Man(b1-4)GlcNAc(b1-4)GlcNAc
Procedure, shortened: as §1

[7] = molecular target: Fuc(a1-2)Gal(b1-3)GlcNAc(b1-2)Man(a1-3)[Fuc(a1-2)Gal(b1-3)GlcNAc(b1-2)Man(a1-6)]Man(b1-4)GlcNAc(b1-4)[Fuc(a1-6)]GlcNAc
Procedure, shortened: as §1

[8] = molecular target: Fuc(a1-2)Gal(b1-3)GlcNAc(b1-3)Gal(b1-4)Glc
Procedure, shortened: as §1

[9] = molecular target: Fuc(a1-2)Gal(b1-3)GlcNAc(b1-3)GalNAc
Procedure, shortened: as §1

[10] = molecular target: Fuc(a1-2)Gal(b1-3)GlcNAc(b1-3)[Fuc(a1-2)Gal(b1-3)GlcNAc(b1-6)]GalNAc
Procedure, shortened: as §1

[11] = molecular target: Fuc(a1-2)Gal(b1-3)GlcNAc(b1-3)[Gal(b1-4)GlcNAc(b1-6)]Gal(b1-4)Glc
Procedure, shortened: as §1

[12] = molecular target: Fuc(a1-2)Gal(b1-3)GlcNAc(b1-3)[Neu5Ac(a2-6)Gal(b1-4)GlcNAc(b1-6)]Gal(b1-4)Glc
Procedure, shortened: as §1

[13] = molecular target: Fuc(a1-2)Gal(b1-3)GlcNAc6S
Procedure, shortened: as §1

[14] = molecular target: Fuc(a1-2)Gal(b1-3)[Fuc(a1-4)]GlcNAc
Procedure, shortened: as §1

[15] = molecular target: Fuc(a1-2)Gal(b1-3)[Fuc(a1-4)]GlcNAc(b1-2)Man(a1-3)[Fuc(a1-2)Gal(b1-3)[Fuc(a1-4)]GlcNAc(b1-2)Man(a1-3)]Man(b1-4)GlcNAc(b1-4)GlcNAc
Procedure, shortened: as §1

[16] = molecular target: Fuc(a1-2)Gal(b1-3)[Fuc(a1-4)]GlcNAc(b1-2)Man(a1-3)[Fuc(a1-2)Gal(b1-3)[Fuc(a1-4)]GlcNAc(b1-2)Man(a1-6)]Man(b1-4)GlcNAc(b1-4)[Fuc(a1-6)]GlcNAc(b1-4)[Fuc(a1-6)]GlcNAc
Procedure, shortened: as §1

[17] = molecular target: Fuc(a1-2)Gal(b1-3)[Fuc(a1-4)]GlcNAc(b1-3)[Fuc(a1-3)[Gal(b1-4)]GlcNAc(b1-6)]Gal(b1-4)Glc
Procedure, shortened: as §1

[18] = molecular target: Fuc(a1-2)Gal(b1-3)[Fuc(a1-4)]GlcNAc(b1-3)[Gal(b1-4)GlcNAc(b1-6)]Gal(b1-4)Glc
Procedure, shortened: as §1

Fuc(a1-2)Gal(b1-4)Glc = molecular target: Fuc(a1-2)Gal(b1-4)Glc
Procedure, shortened: as §1

Fuc(a1-2)Gal(b1-4)Glc6S = molecular target: Fuc(a1-2)Gal(b1-4)Glc6S
Procedure, shortened: as §1

Fuc(a1-2)Gal(b1-4)GlcNAc = molecular target: Fuc(a1-2)Gal(b1-4)GlcNAc
Procedure, shortened: as §1

[19] = molecular target: Fuc(a1-2)Gal(b1-4)GlcNAc(b1-2)Man
Procedure, shortened: as §1

[20] = molecular target: Fuc(a1-2)Gal(b1-4)GlcNAc(b1-2)Man(a1-3)[Fuc(a1-2)Gal(b1-4)GlcNAc(b1-2)Man(a1-6)]Man(b1-4)GlcNAc(b1-4)GlcNAc
Procedure, shortened: as §1

[21] = molecular target: Fuc(a1-2)Gal(b1-4)GlcNAc(b1-2)Man(a1-3)[Fuc(a1-2)Gal(b1-4)GlcNAc(b1-2)Man(a1-6)]Man(b1-4)GlcNAc(b1-4)[Fuc(a1-6)]GlcNAc
Procedure, shortened: as §1

[22] = molecular target: Fuc(a1-2)Gal(b1-4)GlcNAc(b1-2)[Fuc(a1-2)Gal(b1-4)GlcNAc(b1-4)]Man(a1-3)[Fuc(a1-2)Gal(b1-4)GlcNAc(b1-2)Man(a1-6)]Man(b1-4)GlcNAc(b1-4)GlcNAc
Procedure, shortened: as §1

[23] = molecular target: Fuc(a1-2)Gal(b1-4)GlcNAc(b1-3)Gal(b1-4)GlcNAc
Procedure, shortened: as §1

[24] = molecular target: Fuc(a1-2)Gal(b1-4)GlcNAc(b1-3)Gal(b1-4)GlcNAc(b1-2)Man(a1-3)[Fuc(a1-2)Gal(b1-4)GlcNAc(b1-3)Gal(b1-4)GlcNAc(b1-2)Man(a1-6)]Man(b1-4)GlcNAc(b1-4)GlcNAc
Procedure, shortened: as §1

[25] = molecular target: Fuc(a1-2)Gal(b1-4)GlcNAc(b1-3)Gal(b1-4)GlcNAc(b1-3)Gal(b1-4)GlcNAc
Procedure, shortened: as §1

[26] = molecular target: Fuc(a1-2)Gal(b1-4)GlcNAc(b1-3)GalNAc
Procedure, shortened: as §1

[27] = molecular target: Fuc(a1-2)Gal(b1-4)GlcNAc(b1-3)[Fuc(a1-2)Gal(b1-4)GlcNAc(b1-6)]GalNAc
Procedure, shortened: as §1

[28] = molecular target: Fuc(a1-2)Gal(b1-4)GlcNAc(b1-3)[Fuc(a1-3)[Gal(b1-4)]GlcNAc(b1-6)]Gal(b1-4)Glc
Procedure, shortened: as §1

[29] = molecular target: Fuc(a1-2)Gal(b1-4)GlcNAc(b1-6)GalNAc
Procedure, shortened: as §1

[30] = molecular target: Fuc(a1-2)Gal(b1-4)GlcNAc6S
Procedure, shortened: as §1

[31] = molecular target: Fuc(a1-2)Gal(b1-4)[Fuc(a1-3)]GlcNAc
Procedure, shortened: as §1

[32] = molecular target: Fuc(a1-2)Gal(b1-4)[Fuc(a1-3)]GlcNAc(b1-2)Man(a1-3)[Fuc(a1-2)Gal(b1-4)[Fuc(a1-3)]GlcNAc(b1-2)Man(a1-6)]Man(b1-4)GlcNAc(b1-4)[Fuc(a1-6)]GlcNAc
Procedure, shortened: as §1

[33] = molecular target: Fuc(a1-2)Gal(b1-4)[Fuc(a1-3)]GlcNAc(b1-2)[Fuc(a1-2)Gal(b1-4)[Fuc(a1-3)]GlcNAc(b1-4)]Man(a1-3)[Fuc(a1-2)Gal(b1-4)[Fuc(a1-3)]GlcNAc(b1-2)Man(a1-6)]Man(b1-4)GlcNAc(b1-4)GlcNAc
Procedure, shortened: as §1

[34] = molecular target: Fuc(a1-2)Gal(b1-4)[Fuc(a1-3)]GlcNAc(b1-3)Gal(b1-4)[Fuc(a1-3)]GlcNAc
Procedure, shortened: as §1

[35] = molecular target: Fuc(a1-2)Gal(b1-4)[Fuc(a1-3)]GlcNAc(b1-3)Gal(b1-4)[Fuc(a1-3)]GlcNAc(b1-3)Gal(b1-4)[Fuc(a1-3)]GlcNAc
Procedure, shortened: as §1

[36] = molecular target: Fuc(a1-2)Gal(b1-4)[Fuc(a1-3)]GlcNAc(b1-3)GalNAc
Procedure, shortened: as §1

[37] = molecular target: Fuc(a1-2)Gal(b1-4)[Fuc(a1-3)]GlcNAc(b1-3)[Neu5Ac(a2-6)Gal(b1-4)GlcNAc(b1-6)]Gal(b1-4)Glc
Procedure, shortened: as §1

[38] = molecular target: Fuc(a1-2)Gal3S(b1-4)GlcNAc
Procedure, shortened: as §1

[39] = molecular target: Fuc(a1-2)Gal6S(b1-3)GlcNAc
Procedure, shortened: as §1

B1: SBD-G4S3-Fc (protein)
chain: MASIPSSASVQLDSYNYDGSTFSGKIYVKNIAYSKKVTVVYADGSDNWNNNGNIIAASFSGPISGSNYEYWTFSASVKGIKEFYIKYEVSGKTYYDNNNSANYQVSTGGGGSGGGGSGGGGSEFVPRDCGCKPCICTVPEVSSVFIFPPKPKDVLTITLTPKVTCVVVDISKDDPEVQFSWFVDDVEVHTAQTQPREEQFNSTFRSVSELPIMHQDWLNGKEFKCRVNSAAFPAPIEKTISKTKGRPKAPQVYTIPPPKEQMAKDKVSLTCMITDFFPEDITVEWQWNGQPAENYKNTQPIMDTDGSYFVYSKLNVQKSNWEAGNTFTCSVLHEGLHNHHTEKSLSHSPGAA
For B1, which “glycan array binding signal (z-score)” value (Fuc(a1-2)Gal) is on record?
The value was 0.018.

What about the “glycan array binding signal (z-score)” value (Fuc(a1-2)Gal(b1-3)GalNAc) of the same binder?
The value was -0.273.

And the “glycan array binding signal (z-score)” value [1]?
Its value is 0.007.

What about the “glycan array binding signal (z-score)” value [2] of the same binder?
Its value is -0.029.

And the “glycan array binding signal (z-score)” value [3]?
The value was -0.306.

What about the “glycan array binding signal (z-score)” value [4] of the same binder?
The value was -0.249.

What about the “glycan array binding signal (z-score)” value [5] of the same binder?
Its value is -0.266.

What about the “glycan array binding signal (z-score)” value (Fuc(a1-2)Gal(b1-3)GlcNAc) of the same binder?
The value was -0.007.

What about the “glycan array binding signal (z-score)” value [6] of the same binder?
The value was 0.568.

And the “glycan array binding signal (z-score)” value [7]?
The value was 0.262.

And the “glycan array binding signal (z-score)” value [8]?
Its value is -0.327.

And the “glycan array binding signal (z-score)” value [9]?
The value was -0.302.

And the “glycan array binding signal (z-score)” value [10]?
The value was 0.041.

What about the “glycan array binding signal (z-score)” value [11] of the same binder?
Its value is -0.03.

What about the “glycan array binding signal (z-score)” value [12] of the same binder?
The value was -0.478.

And the “glycan array binding signal (z-score)” value [13]?
Its value is -0.371.

And the “glycan array binding signal (z-score)” value [14]?
The value was -0.274.

What about the “glycan array binding signal (z-score)” value [15] of the same binder?
Its value is 0.368.

What about the “glycan array binding signal (z-score)” value [16] of the same binder?
Its value is 0.339.

What about the “glycan array binding signal (z-score)” value [17] of the same binder?
Its value is -0.387.

And the “glycan array binding signal (z-score)” value [18]?
Its value is -0.509.

And the “glycan array binding signal (z-score)” value (Fuc(a1-2)Gal(b1-4)Glc)?
The value was -0.193.

And the “glycan array binding signal (z-score)” value (Fuc(a1-2)Gal(b1-4)Glc6S)?
The value was -0.196.

And the “glycan array binding signal (z-score)” value (Fuc(a1-2)Gal(b1-4)GlcNAc)?
The value was -0.284.

What about the “glycan array binding signal (z-score)” value [19] of the same binder?
The value was -0.263.

And the “glycan array binding signal (z-score)” value [20]?
The value was 0.181.

And the “glycan array binding signal (z-score)” value [21]?
The value was 0.577.

And the “glycan array binding signal (z-score)” value [22]?
Its value is 0.196.

And the “glycan array binding signal (z-score)” value [23]?
Its value is -0.45.

What about the “glycan array binding signal (z-score)” value [24] of the same binder?
The value was 1.23.

What about the “glycan array binding signal (z-score)” value [25] of the same binder?
Its value is -0.034.

And the “glycan array binding signal (z-score)” value [26]?
Its value is -0.406.

What about the “glycan array binding signal (z-score)” value [27] of the same binder?
The value was 0.141.

And the “glycan array binding signal (z-score)” value [28]?
Its value is -0.333.

And the “glycan array binding signal (z-score)” value [29]?
The value was 0.307.

What about the “glycan array binding signal (z-score)” value [30] of the same binder?
The value was -0.428.

What about the “glycan array binding signal (z-score)” value [31] of the same binder?
Its value is 0.134.

What about the “glycan array binding signal (z-score)” value [32] of the same binder?
Its value is 0.229.

What about the “glycan array binding signal (z-score)” value [33] of the same binder?
Its value is 0.36.

What about the “glycan array binding signal (z-score)” value [34] of the same binder?
The value was -0.382.

What about the “glycan array binding signal (z-score)” value [35] of the same binder?
The value was -0.471.

What about the “glycan array binding signal (z-score)” value [36] of the same binder?
The value was 0.32.

What about the “glycan array binding signal (z-score)” value [37] of the same binder?
Its value is -0.03.

What about the “glycan array binding signal (z-score)” value [38] of the same binder?
Its value is -0.519.

And the “glycan array binding signal (z-score)” value [39]?
Its value is -0.225.

From the supplement of paper PMC8728848
